# Assay results as given in the supplement of paper PMC8728848.
# This is one part of the list.
# Tests used:
# Assay in all cases: glycan array binding signal (z-score within array); higher = stronger binding
# Details in all cases: glycan notation: IUPAC condensed, linker removed
# [1] = target: Man(a1-2)Man(a1-2)Man(a1-6)[Man(a1-3)]Man
# Method in brief: (§1)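 Columns mapping to the same glycan were averaged after glycan names were converted to IUPAC-condensed notation. The data come from 3228 arrays in the Consortium for Functional Glycomics database, limited to those with an available protein sequence. Binding is reported as a within-array Z-score averaged across arrays of one protein sequence and across linkers.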
# Man(a1-2)Man(a1-3)Man = target: Man(a1-2)Man(a1-3)Man
# Method in brief: as §1
# [2] = target: Man(a1-2)Man(a1-3)[Man(a1-2)Man(a1-6)]Man
# Method in brief: as §1
# [3] = target: Man(a1-2)Man(a1-3)[Man(a1-2)Man(a1-6)]Man(a1-6)[Man(a1-2)Man(a1-2)Man(a1-3)]Man(b1-4)GlcNAc(b1-4)GlcNAc
# Method in brief: as §1
# [4] = target: Man(a1-2)Man(a1-3)[Man(a1-2)Man(a1-6)]Man(a1-6)[Man(a1-3)[Man(a1-6)]Man(a1-6)]Man(b1-4)GlcNAc(b1-4)GlcNAc
# Method in brief: as §1
# [5] = target: Man(a1-2)Man(a1-3)[Man(a1-6)]Man(a1-6)[Man(a1-2)Man(a1-3)]Man(b1-4)GlcNAc(b1-4)GlcNAc
# Method in brief: as §1
# [6] = target: Man(a1-2)Man(a1-6)[Man(a1-3)]Man(a1-6)[Man(a1-2)Man(a1-2)Man(a1-3)]Man(b1-4)GlcNAc(b1-4)GlcNAc
# Method in brief: as §1
# Man(a1-3)[Man(a1-6)]Man = target: Man(a1-3)[Man(a1-6)]Man
# Method in brief: as §1
# [7] = target: Man(a1-3)[Man(a1-6)]Man(a1-6)[Man(a1-3)]Man(b1-4)GlcNAc(b1-4)GlcNAc
# Method in brief: as §1
# Neu5Ac(a2-3)Gal = target: Neu5Ac(a2-3)Gal
# Method in brief: as §1
# [8] = target: Neu5Ac(a2-3)Gal(b1-3)GalNAc
# Method in brief: as §1
# [9] = target: Neu5Ac(a2-3)Gal(b1-3)GalNAc6S
# Method in brief: as §1
# [10] = target: Neu5Ac(a2-3)Gal(b1-3)GlcNAc
# Method in brief: as §1
# [11] = target: Neu5Ac(a2-3)Gal(b1-3)[Fuc(a1-4)]GlcNAc
# Method in brief: as §1
# [12] = target: Neu5Ac(a2-3)Gal(b1-3)[Neu5Ac(a2-3)Gal(b1-4)]GlcNAc
# Method in brief: as §1
# [13] = target: Neu5Ac(a2-3)Gal(b1-3)[Neu5Ac(a2-6)]GalNAc
# Method in brief: as §1
# Neu5Ac(a2-3)Gal(b1-4)Glc = target: Neu5Ac(a2-3)Gal(b1-4)Glc
# Method in brief: as §1
# [14] = target: Neu5Ac(a2-3)Gal(b1-4)GlcNAc
# Method in brief: as §1
# [15] = target: Neu5Ac(a2-3)Gal(b1-4)GlcNAc(b1-3)Gal(b1-4)GlcNAc
# Method in brief: as §1
# [16] = target: Neu5Ac(a2-3)Gal(b1-4)GlcNAc(b1-3)Gal(b1-4)GlcNAc(b1-3)Gal(b1-4)GlcNAc
# Method in brief: as §1
# [17] = target: Neu5Ac(a2-3)Gal(b1-4)GlcNAc6S
# Method in brief: as §1
# [18] = target: Neu5Ac(a2-3)Gal(b1-4)[Fuc(a1-3)]GlcNAc
# Method in brief: as §1
# [19] = target: Neu5Ac(a2-3)Gal(b1-4)[Fuc(a1-3)]GlcNAc(b1-3)Gal
# Method in brief: as §1
# [20] = target: Neu5Ac(a2-3)Gal(b1-4)[Fuc(a1-3)]GlcNAc(b1-3)Gal(b1-4)GlcNAc
# Method in brief: as §1
# [21] = target: Neu5Ac(a2-3)Gal(b1-4)[Fuc(a1-3)]GlcNAc(b1-3)Gal(b1-4)[Fuc(a1-3)]GlcNAc(b1-3)Gal(b1-4)[Fuc(a1-3)]GlcNAc
# Method in brief: as §1
# [22] = target: Neu5Ac(a2-3)Gal(b1-4)[Fuc(a1-3)]GlcNAc6S
# Method in brief: as §1
# [23] = target: Neu5Ac(a2-3)Gal6S(b1-4)GlcNAc
# Method in brief: as §1
binder,measurement,setting,value
CGL3 (Coprinopsis cinerea) (protein) MGHHHHHHHHSGFHILRLESTVDLSEPLKDNGIIVFQSDKLDLEPSPNLGPTGIDNTNVNLINAKGDVLLHIGIRRRENAFVFNSIPYGESRGPEERIPLEGTFGDRRDPSITVFDHPDRYQIMIDYKTVYYYKKRLEGRCEKVSYKINEGQTPPFSDVLGVTVLYFANVMPRAN,glycan array binding signal (z-score),[1],-0.193
same,glycan array binding signal (z-score),Man(a1-2)Man(a1-3)Man,-0.117
same,glycan array binding signal (z-score),[2],-0.172
same,glycan array binding signal (z-score),[3],-0.211
same,glycan array binding signal (z-score),[4],-0.008
same,glycan array binding signal (z-score),[5],-0.182
same,glycan array binding signal (z-score),[6],-0.07
same,glycan array binding signal (z-score),Man(a1-3)[Man(a1-6)]Man,-0.153
same,glycan array binding signal (z-score),[7],-0.192
same,glycan array binding signal (z-score),Neu5Ac(a2-3)Gal,-0.213
same,glycan array binding signal (z-score),[8],-0.207
same,glycan array binding signal (z-score),[9],-0.205
same,glycan array binding signal (z-score),[10],-0.195
same,glycan array binding signal (z-score),[11],-0.211
same,glycan array binding signal (z-score),[12],-0.222
same,glycan array binding signal (z-score),[13],-0.181
same,glycan array binding signal (z-score),Neu5Ac(a2-3)Gal(b1-4)Glc,0.285
same,glycan array binding signal (z-score),[14],-0.212
same,glycan array binding signal (z-score),[15],-0.21
same,glycan array binding signal (z-score),[16],-0.223
same,glycan array binding signal (z-score),[17],-0.095
same,glycan array binding signal (z-score),[18],-0.215
same,glycan array binding signal (z-score),[19],-0.224
same,glycan array binding signal (z-score),[20],-0.194
same,glycan array binding signal (z-score),[21],-0.208
same,glycan array binding signal (z-score),[22],-0.221
same,glycan array binding signal (z-score),[23],-0.19
